# Measurements taken from the supplement of paper PMC10037445.
# ± gives the standard deviation of the averaged measurements. In all, about 2,900 compounds were measured (“NF-kB SEAP reporter activity, fold change vs agonist alone”: median about 0.99, highest 2% from about 2.6 on). The list shows a part of the results.
# Columns and labels:
# [1] = test system: RAW-Dual; assay: NF-kB SEAP reporter activity, fold change vs agonist alone; cytotoxicity flag (confluency mask): not cytotoxic; higher = enhanced NF-kB activity
# How it was run: (§1)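 Supernatant from RAW-Dual macrophages was read after 20 hours for IRF by QuantiLuc luminescence and for NF-κB by QuantiBlue absorbance at 620 nm. The cells (50,000 cells/well in DMEM, 384-well plates, 37 °C, 5% CO2) had received 50 nL of library stock by pin tool and, 1 h later, a PRR agonist. Reporter activity is expressed relative to agonist-alone wells as fold change, and wells were flagged cytotoxic if IncuCyte confluency was under 70% of agonist controls in both mask sets.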
# [2] = test system: RAW-Dual; assay: NF-kB SEAP reporter activity, fold change vs agonist alone; higher = enhanced NF-kB activity
# How it was run: as §1
# [3] = test system: RAW-Dual; assay: NF-kB SEAP reporter activity, fold change vs agonist alone; cytotoxicity flag (confluency mask): cytotoxic (confluency <70% of control); higher = enhanced NF-kB activity
# How it was run: as §1
# [4] = agonist: ODN 1826 (TLR9) 0.5 ug/mL
# [5] = agonist: Pam2CSK4 (TLR2/6) 0.1 ug/mL
# [6] = agonist: Pam3CSK4 (TLR2/1) 0.1 ug/mL
# [7] = library stock concentration (final ~1000-fold dilution): 10 mM, cytotoxicity flag (confluency mask): not cytotoxic, agonist: Imiquimod (TLR7) […]
# [8] = library stock concentration (final ~1000-fold dilution): 10 mM, cytotoxicity flag (confluency mask): not cytotoxic, agonist: MPLA (TLR4) […]
# [9] = library stock concentration (final ~1000-fold dilution): 10 mM, cytotoxicity flag (confluency mask): cytotoxic (confluency <70% of control), agonist: Imiquimod (TLR7) […]
# [10] = library stock concentration (final ~1000-fold dilution): 10 mM, cytotoxicity flag (confluency mask): cytotoxic (confluency <70% of control), agonist: MPLA (TLR4) […]
smiles,measurement,setting,value
c1ccc(-c2nn3c(c2-c2ccnc4cc(OCCN5CCOCC5)ccc24)CCC3)nc1 (library stock concentration (final ~1000-fold dilution): 2 mM),NF-kB SEAP reporter activity,[1]; agonist: LPS (TLR4) 0.1 ug/mL,2.87
same,NF-kB SEAP reporter activity,[1]; [4],1.07
same,NF-kB SEAP reporter activity,[1]; [5],1.05
same,NF-kB SEAP reporter activity,[1]; [6],1.01
c1ccc(-c2nn3c(c2-c2ccnc4cc(OCCN5CCOCC5)ccc24)CCC3)nc1,NF-kB SEAP reporter activity,"[2]; library stock concentration (final ~1000-fold dilution): 2 mM, cytotoxicity flag (confluency mask): not cytotoxic, agonist: Imiquimod (TLR7) […]",0.793
same,NF-kB SEAP reporter activity,"[2]; library stock concentration (final ~1000-fold dilution): 2 mM, cytotoxicity flag (confluency mask): not cytotoxic, agonist: MPLA (TLR4) […]",1.27
O=C(O)Cn1nnc(-c2cc(N3CCC(Oc4cc(F)ccc4Br)CC3)no2)n1 (library stock concentration (final ~1000-fold dilution): 10 mM),NF-kB SEAP reporter activity,[1]; agonist: LPS (TLR4) 0.1 ug/mL,1.16
same,NF-kB SEAP reporter activity,[1]; [4],1.18
same,NF-kB SEAP reporter activity,[1]; [5],1.2
same,NF-kB SEAP reporter activity,[1]; [6],0.974
O=C(O)Cn1nnc(-c2cc(N3CCC(Oc4cc(F)ccc4Br)CC3)no2)n1,NF-kB SEAP reporter activity,[2]; [7],0.988
same,NF-kB SEAP reporter activity,[2]; [8],1.2
O=C(Nc1cccc(Br)c1)c1cccc(S(=O)(=O)N2CCCCCC2)c1,NF-kB SEAP reporter activity,[2]; [7],1.56
same,NF-kB SEAP reporter activity,[2]; [8],1.26
O=C(Nc1cccc(Br)c1)c1cccc(S(=O)(=O)N2CCCCCC2)c1 (library stock concentration (final ~1000-fold dilution): 10 mM),NF-kB SEAP reporter activity,[1]; agonist: LPS (TLR4) 0.1 ug/mL,0.803
same,NF-kB SEAP reporter activity,[1]; [4],1.79
same,NF-kB SEAP reporter activity,[1]; [5],1.02
same,NF-kB SEAP reporter activity,[1]; [6],0.939
CC(C)n1c(=O)n(C)c2cnc3cc(F)c(-c4ccc(OCCCN5CCCCC5)nc4)cc3c21,NF-kB SEAP reporter activity,[2]; [7],0.846
same,NF-kB SEAP reporter activity,[2]; [8],1.02
CC(C)n1c(=O)n(C)c2cnc3cc(F)c(-c4ccc(OCCCN5CCCCC5)nc4)cc3c21 (library stock concentration (final ~1000-fold dilution): 10 mM),NF-kB SEAP reporter activity,[1]; agonist: LPS (TLR4) 0.1 ug/mL,0.962
same,NF-kB SEAP reporter activity,[1]; [4],0.233
same,NF-kB SEAP reporter activity,[1]; [5],0.903
same,NF-kB SEAP reporter activity,[1]; [6],0.978
Nc1ccc(C(=O)O)c(O)c1,NF-kB SEAP reporter activity,[2]; [7],0.93 ± 0.035
same,NF-kB SEAP reporter activity,[2]; [8],1.03 ± 0.034
Nc1ccc(C(=O)O)c(O)c1 (library stock concentration (final ~1000-fold dilution): 10 mM),NF-kB SEAP reporter activity,[1]; agonist: LPS (TLR4) 0.1 ug/mL,1.11 ± 0.023
same,NF-kB SEAP reporter activity,[1]; [4],0.937 ± 0.018
same,NF-kB SEAP reporter activity,[1]; [5],1.07 ± 0.031
same,NF-kB SEAP reporter activity,[1]; [6],1.15 ± 0.18
CCOc1nc2cccc(C(=O)O)c2n1Cc1ccc(-c2ccccc2-c2nn[nH]n2)cc1,NF-kB SEAP reporter activity,[2]; [7],0.9
same,NF-kB SEAP reporter activity,[2]; [8],1.02
CCOc1nc2cccc(C(=O)O)c2n1Cc1ccc(-c2ccccc2-c2nn[nH]n2)cc1 (library stock concentration (final ~1000-fold dilution): 10 mM),NF-kB SEAP reporter activity,[1]; agonist: LPS (TLR4) 0.1 ug/mL,1.21
same,NF-kB SEAP reporter activity,[1]; [4],0.995
same,NF-kB SEAP reporter activity,[1]; [5],1.04
same,NF-kB SEAP reporter activity,[1]; [6],1.15
COc1cc(CCc2cc(NC(=O)c3ccc(N4CC(C)NC(C)C4)cc3)n[nH]2)cc(OC)c1 (stereo unspecified),NF-kB SEAP reporter activity,[2]; [9],2.27
same,NF-kB SEAP reporter activity,[2]; [10],2.29
COc1cc(CCc2cc(NC(=O)c3ccc(N4CC(C)NC(C)C4)cc3)n[nH]2)cc(OC)c1 (stereo unspecified) (library stock concentration (final ~1000-fold dilution): 10 mM),NF-kB SEAP reporter activity,[3]; agonist: LPS (TLR4) 0.1 ug/mL,1.93
same,NF-kB SEAP reporter activity,[3]; [4],0.305
same,NF-kB SEAP reporter activity,[3]; [5],0.68
same,NF-kB SEAP reporter activity,[3]; [6],1
CNCc1ccc(C)c(NC(=O)c2ccc(Nc3nc(-c4ccccc4)c4ccccc4n3)cc2)c1,NF-kB SEAP reporter activity,[2]; [7],0.945
same,NF-kB SEAP reporter activity,[2]; [8],0.949
CNCc1ccc(C)c(NC(=O)c2ccc(Nc3nc(-c4ccccc4)c4ccccc4n3)cc2)c1 (library stock concentration (final ~1000-fold dilution): 10 mM),NF-kB SEAP reporter activity,[1]; agonist: LPS (TLR4) 0.1 ug/mL,1.02
same,NF-kB SEAP reporter activity,[1]; [4],0.866
same,NF-kB SEAP reporter activity,[1]; [5],0.925
same,NF-kB SEAP reporter activity,[1]; [6],0.951
CCCc1cc2c(N3CCN(C4=NCC(C)(C)S4)CC3)ncnc2s1,NF-kB SEAP reporter activity,[2]; [7],0.664
same,NF-kB SEAP reporter activity,[2]; [8],1.14
CCCc1cc2c(N3CCN(C4=NCC(C)(C)S4)CC3)ncnc2s1 (library stock concentration (final ~1000-fold dilution): 10 mM),NF-kB SEAP reporter activity,[1]; agonist: LPS (TLR4) 0.1 ug/mL,1.25
same,NF-kB SEAP reporter activity,[1]; [4],0.768
same,NF-kB SEAP reporter activity,[1]; [5],0.819
same,NF-kB SEAP reporter activity,[1]; [6],1.01
Cc1cn(-c2cc(NC(=O)c3ccc(C)c(Nc4nccc(-c5cnccn5)n4)c3)cc(C(F)(F)F)c2)cn1,NF-kB SEAP reporter activity,[2]; [7],0.942
same,NF-kB SEAP reporter activity,[2]; [8],1.02
Cc1cn(-c2cc(NC(=O)c3ccc(C)c(Nc4nccc(-c5cnccn5)n4)c3)cc(C(F)(F)F)c2)cn1 (library stock concentration (final ~1000-fold dilution): 10 mM),NF-kB SEAP reporter activity,[1]; agonist: LPS (TLR4) 0.1 ug/mL,0.824
same,NF-kB SEAP reporter activity,[1]; [4],0.908
same,NF-kB SEAP reporter activity,[1]; [5],0.453
same,NF-kB SEAP reporter activity,[1]; [6],0.663
Fc1ccc(Nc2nc(Nc3ccc(-c4nc5ccccc5[nH]4)cc3)nc(N3CCOCC3)n2)cc1,NF-kB SEAP reporter activity,[2]; [9],0.399
same,NF-kB SEAP reporter activity,[2]; [10],1.42
Fc1ccc(Nc2nc(Nc3ccc(-c4nc5ccccc5[nH]4)cc3)nc(N3CCOCC3)n2)cc1 (library stock concentration (final ~1000-fold dilution): 10 mM),NF-kB SEAP reporter activity,[3]; agonist: LPS (TLR4) 0.1 ug/mL,0.621
same,NF-kB SEAP reporter activity,[3]; [4],0.452
same,NF-kB SEAP reporter activity,[3]; [5],0.212
same,NF-kB SEAP reporter activity,[3]; [6],0.25
CN1c2ccccc2C(=O)N2CCc3c([nH]c4ccccc34)C21 (stereo unspecified) (library stock concentration (final ~1000-fold dilution): 10 mM),NF-kB SEAP reporter activity,[1]; agonist: LPS (TLR4) 0.1 ug/mL,1.86
same,NF-kB SEAP reporter activity,[1]; [4],1.27
same,NF-kB SEAP reporter activity,[1]; [5],0.943
same,NF-kB SEAP reporter activity,[1]; [6],1.1
CN1c2ccccc2C(=O)N2CCc3c([nH]c4ccccc34)C21 (stereo unspecified),NF-kB SEAP reporter activity,[2]; [7],1.19
same,NF-kB SEAP reporter activity,[2]; [8],1.24
Cl.NCCCCC(N)C(=O)O (stereo unspecified) (library stock concentration (final ~1000-fold dilution): 10 mM water),NF-kB SEAP reporter activity,[1]; agonist: LPS (TLR4) 0.1 ug/mL,1.04
same,NF-kB SEAP reporter activity,[1]; [4],1.11
same,NF-kB SEAP reporter activity,[1]; [5],1.21
same,NF-kB SEAP reporter activity,[1]; [6],1.17
